Assay results as given in PubChem BioAssay AID360 (National Center for Advancing Translational Sciences (NCATS), 2006).
Out of some 48,000 compounds screened, about 550 (1.1%) were called active. Not shown: some 4% with an inconclusive outcome. No stated cut-off is given here; in the data, active means potency below about 15 µM; inconclusive means mostly about 16 µM to 33 µM; inactive means weaker than that. The list shows a part of the results.

Target: Lysosomal acid glucosylceramidase (Homo sapiens) (UniProt P04062)
UniProt P04062, sequence (P04062 whole entry, looked up): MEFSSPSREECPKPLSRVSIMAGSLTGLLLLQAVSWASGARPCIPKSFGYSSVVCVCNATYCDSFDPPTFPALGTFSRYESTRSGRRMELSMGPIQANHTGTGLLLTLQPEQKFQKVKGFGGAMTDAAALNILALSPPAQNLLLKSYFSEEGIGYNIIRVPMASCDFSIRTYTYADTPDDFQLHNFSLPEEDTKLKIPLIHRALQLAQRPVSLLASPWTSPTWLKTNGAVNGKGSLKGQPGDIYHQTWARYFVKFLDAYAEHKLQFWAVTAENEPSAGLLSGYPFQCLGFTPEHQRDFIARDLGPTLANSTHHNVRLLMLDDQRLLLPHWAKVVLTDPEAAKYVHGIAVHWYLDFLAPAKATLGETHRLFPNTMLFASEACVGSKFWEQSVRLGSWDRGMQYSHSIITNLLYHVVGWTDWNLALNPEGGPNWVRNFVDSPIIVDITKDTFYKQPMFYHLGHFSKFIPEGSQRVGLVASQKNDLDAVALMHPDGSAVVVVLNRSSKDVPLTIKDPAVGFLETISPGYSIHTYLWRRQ
Assay: Glucocerebrosidase;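 further: the screen sought inhibitors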
Settings: purified enzyme, resorufin glucoside fluorescence (screen aimed at inhibitors), 20 min
Outline: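 Normal human glucocerebrosidase (0.2 nM final) was assayed with resorufin β-D-glucopyranoside (30 uM final) in 50mM citric acid/KH2PO4, 10mM sodium taurocholate, 0.01% tween-20, pH 5.9. Compounds were titrated; fluorescence (Ex 548, Em 600) read after 20 min at RT.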
Potency means the concentration at half of the fitted maximal effect.

Potency, inactive:
O=S(=O)(c1ccc(N2CCN(c3ccc(F)cc3)CC2)cc1)N1CCCC1 > 76.9 µM
Clc1ccc(Cn2nnc(-c3ccc(N4CCOCC4)cc3)n2)cc1 > 76.9 µM
O=C(Nc1cccnc1)c1cnc2ccccc2n1 > 76.9 µM
COc1ccc(NC(=O)NC(C)c2ccncc2)cc1OC (configuration not stated) > 76.9 µM
Cc1cc(-c2ccccc2N)n[nH]1 > 76.9 µM
C=CCOc1ccccc1/C=c1\sc2nc(=O)c(C)nn2c1=O > 76.9 µM
CCOC(=O)CNC(=O)Nc1cccc(Cl)c1C > 76.9 µM
O=c1[nH]cnc2scc(-c3cccs3)c12 > 76.9 µM
CCOC(=O)c1nnc(-c2ccccc2)o1 > 76.9 µM
Cc1cc(C)c2c(C)nn(C3CCCCC3)c2n1 > 76.9 µM
O=C1CCCN1CC(CN1CCOCC1)Sc1nnnn1-c1ccccc1 (configuration not stated) > 76.9 µM
CCOC(=O)C(C)Sc1nc2c(cnn2-c2ccc(C)cc2)c(=O)[nH]1 (configuration not stated) > 76.9 µM
CC1CCC(NC(=O)c2ccc(CS(=O)(=O)Cc3ccccc3F)o2)CC1 (configuration not stated) > 76.9 µM
O=C(CN1CCN(c2ccccc2)CC1)Nc1ccccc1C(F)(F)F > 76.9 µM
CC(=O)Nc1cccc(NC(=O)CSc2nnnn2C)c1 > 76.9 µM
c1ccc(CCNC2=NCCCS2)cc1 > 76.9 µM
Cc1c2c(nc3c(C(=O)NC4CCCCC4C)cnn13)CCCC2 (configuration not stated) > 76.9 µM
CCOc1cc(C(=O)NC)cc(OCC)c1OCC > 76.9 µM
O=C(NCc1cccs1)c1cc2c(s1)CCCC2 > 76.9 µM
COc1ccccc1CNC(=O)C1CCN(S(=O)(=O)N2CCCCC2)CC1 > 76.9 µM
CSc1ccccc1NC(=O)CN(c1ccccc1)S(=O)(=O)N(C)C > 76.9 µM
CC(C)(C)Sc1nc(O)cc(=O)[nH]1 > 76.9 µM
Cc1cccc(-c2nnn(CC/C(N)=N/O)n2)c1 > 76.9 µM
CCOc1ccc(CNC(=O)C2CCC(=O)N2C2CCCC2)cc1OC (configuration not stated) > 76.9 µM
COc1ccc(C(=O)N2CCOCC2)cc1Br > 76.9 µM
O=C(O)C1C2C=CC3(O2)C1C(=O)N1c2ccccc2COC13 (configuration not stated) > 76.9 µM
COc1ccccc1NC(=O)c1ccccc1-c1nc(-c2ccccc2OC)no1 > 76.9 µM
CCOC(=O)CSc1nnc(CNC(=O)c2ccc(S(=O)(=O)N3CCCC3)cc2)n1C > 76.9 µM
Cn1c(=O)c(C(=O)CN2CCOCC2)c(N)n(Cc2ccccc2)c1=O > 76.9 µM
O=c1[nH]c2ccc(Cl)cc2c(=O)n1Cc1ccco1 > 76.9 µM
COc1ccccc1CN(CC(=O)NCc1ccco1)C(=O)CNS(=O)(=O)c1ccccc1 > 76.9 µM
C1CCc2c(nc3nnnn3c2N2CCOCC2)C1 > 76.9 µM
Cc1ccc(-n2c(CNc3ccc(F)cc3)nnc2SCC(=O)NCc2ccco2)cc1 > 76.9 µM
COc1cc(C2=NOC(C(=O)Nc3ccc(C(C)=O)cc3)C2)cc(OC)c1OC (configuration not stated) > 76.9 µM
Cc1ccc(C)c(-n2c(N)c(C(N)=O)sc2=S)c1 > 76.9 µM
COC(=O)c1c(-c2ccc(F)cc2)noc1N > 76.9 µM
COc1ccccc1N1CCN(C(=O)CCn2c(=O)[nH]c3ccsc3c2=O)CC1 > 76.9 µM
N#Cc1c(NC(=O)CN2CCOCC2)oc(-c2ccccc2)c1-c1ccccc1 > 76.9 µM
Cc1csc(NC(=O)CSc2nnc(-c3ccoc3C)n2CCc2ccccc2)n1 > 76.9 µM
Cc1ccc(N2CC(C(=O)NCc3cccs3)CC2=O)cc1 (configuration not stated) > 76.9 µM
CCCn1nnc(NC(=O)c2cc(Br)ccc2OC)n1 > 76.9 µM
CN(CC(=O)N1CCN(c2ccccn2)CC1)S(=O)(=O)c1ccccc1 > 76.9 µM
Cc1nc2ccc(CCO)cc2s1 > 76.9 µM
CCOCCCn1c(=S)[nH]c2ncccc2c1=O > 76.9 µM
Cc1ccc(N2CCCCn3c2nc2c3c(=O)[nH]c(=O)n2C)cc1 > 76.9 µM
Cn1c(=O)c2c(nc(SCC(=O)NCC3CCCO3)n2C)n(C)c1=O (configuration not stated) > 76.9 µM
Cc1ccc(CN2C3=NC(=O)CN3c3ccccc32)cc1 > 76.9 µM
CCCc1nc(NCc2ccco2)c(C#N)c2c1COC(C)(C)C2 > 76.9 µM
CCCC1(C(=O)OCC)NC(c2ccc(N(C)C)cc2)C2C(=O)N(c3ccc(F)cc3)C(=O)C21 (configuration not stated) > 76.9 µM
COc1ccc2c(c1)c(C(O)CN1CCC3(CC1)OCCO3)c(C)n2C (configuration not stated) > 76.9 µM
OC1(c2cccc(F)c2)CCN(Cc2ccncc2)CC1 > 76.9 µM
Cc1cc(C)cc(N(CCC#N)C(=O)CSc2nc3nc(C)cc(C)n3n2)c1 > 76.9 µM
CCN(CC)S(=O)(=O)c1ccc(NC(=O)CN(c2ccc(OC)cc2OC)S(C)(=O)=O)cc1 > 76.9 µM
O=C(CSc1nnnn1-c1ccc2c(c1)OCO2)NCc1ccccc1 > 76.9 µM
CCCc1ncc(C(O)c2cccc3ccccc23)n1C (configuration not stated) > 76.9 µM
COc1ccc(OC)c(NC=C2C(=O)OC3(CCCCC3)OC2=O)c1 > 76.9 µM
Cc1cccn2cc(CNC(=O)c3ccco3)nc12 > 76.9 µM
CCC1CCCCN1CCCNC(=O)Cn1nc(-c2ccccc2)ccc1=O (configuration not stated) > 76.9 µM
COCCNC(=O)CN(c1cc(Cl)ccc1OC)S(C)(=O)=O > 76.9 µM
CC1(C(=O)NC2CCCC2)CCC(=O)N1Cc1ccccc1 (configuration not stated) > 76.9 µM
CCC(C)(C)NC(=O)C1CCN(c2nc(C)cc(C)n2)CC1 > 76.9 µM
CN(C(=O)c1ccc(Cl)c(S(=O)(=O)N2CCOCC2)c1)c1ccccc1C(=O)O > 76.9 µM
COc1ccccc1-c1cc(C(F)(F)F)nc(S(=O)(=O)CCCC(=O)NC(C)C)n1 > 76.9 µM
Cc1cccc(Nc2nc(NC(C)C)nc(Oc3ccc(=O)n(C)n3)n2)c1 > 76.9 µM
CC(C)(C)NS(=O)(=O)c1ccc2nc(NC(=O)Cc3cccs3)sc2c1 > 76.9 µM
COc1ccc(Cn2nnnc2C(c2ccc(N(C)C)cc2)N2CCC(C)CC2)cc1 (configuration not stated) > 76.9 µM
CCn1c(SCC(=O)NC)nnc1C(C)C > 76.9 µM
CCOc1ccc(NC(=O)Cn2nnc(C(=O)NCc3ccccc3OC)c2N)cc1 > 76.9 µM
C1=Nc2c(Nc3ccccc3)ncnc2Oc2ccccc21 > 76.9 µM
CCOC(=O)c1cccc(NC(=O)CSc2nnnn2CC)c1 > 76.9 µM
O=C(NCC1CCCO1)C1C2C=CC3(CN(Cc4cccs4)C(=O)C13)O2 (configuration not stated) > 76.9 µM
N#CC(C(=O)OC1CCCCC1)c1nc2ccccc2nc1N1CCCCC1 (configuration not stated) > 76.9 µM
O=C(NC1CC2CCCC(C1)N2CC(=O)N1CCCc2ccccc21)C1CCCCC1 (configuration not stated) > 76.9 µM
CCOC(=O)Nc1ccc(C(N)=O)cc1 > 76.9 µM
COc1ccccc1N1CCN(C(=O)CSc2nnc3n2C(C)(C)Cc2ccccc2-3)CC1 > 76.9 µM
CCCn1c(-c2ccc(F)cc2)cnc1SCC(=O)O > 76.9 µM
CCOC(=O)N1CCN(C(=O)CN(c2ccc3c(c2)OCO3)S(C)(=O)=O)CC1 > 76.9 µM
Cc1ccc(SCCC(=O)NCC2CCCO2)cc1 (configuration not stated) > 76.9 µM
COc1ccc(OC)c(S(=O)(=O)N2CCC(C(=O)N3CCN(Cc4ccccc4)CC3)CC2)c1 > 76.9 µM
Cc1nc2ccc(NC(=O)N3CCCCC3)cc2s1 > 76.9 µM
CCN(CC(=O)Nc1cccc(OC)c1)C(=O)C1CCN(C(=O)Nc2ccccc2)CC1 > 76.9 µM
Cc1onc(-c2ccccc2)c1C(=O)N1CCOCC1 > 76.9 µM
CCOC(=O)C(NCc1ccc2c(c1)OCO2)(NC(=O)CC)C(F)(F)F (configuration not stated) > 76.9 µM
CC(=O)c1cc(-c2ccccc2)n(CC(=O)N2CCN(C3CCCC3)CC2)c1C > 76.9 µM
Cc1ccc(S(=O)(=O)NCC(C)NS(=O)(=O)c2ccc(C)cc2)cc1 (configuration not stated) > 76.9 µM
Cn1cnnc1Sc1nc2ccccc2nc1NS(=O)(=O)c1ccccc1 > 76.9 µM
C=CCn1c(Cc2cccs2)nnc1SCC(=O)c1ccc(F)cc1 > 76.9 µM
O=C(NCCCN1CCCC1=O)c1ccc(Cl)c(NS(=O)(=O)c2ccc(F)cc2)c1 > 76.9 µM
COc1ccc(OC)c(S(=O)(=O)Nc2ccc(C(N)=O)cc2)c1 > 76.9 µM
O=C1C2CC=CCC2C(=O)N1c1n[nH]c(Cc2ccccc2)n1 (configuration not stated) > 76.9 µM
O=C(NCCN1CCOCC1)c1ccc(CS(=O)(=O)c2ccc(Cl)cc2)o1 > 76.9 µM
Cn1c(COc2ccccc2)nnc1SCC(=O)NCc1ccccc1 > 76.9 µM
